Assay results as given in PubChem BioAssay AID1347073 (National Center for Advancing Translational Sciences (NCATS), 2019).
Screen size: about 45,000 compounds; about 200 (0.44%) were called active. About 7% were inconclusive and are not listed. Calls follow the shape of the dose curve; as a rule, active = well fitted activation curve with a large enough effect; inconclusive = small, poorly fitted or top-dose-only effect; inactive = no such curve, though single readings can be large or run the other way. Some of the results follow.

test: qHTS of TDP-43 Inhibitors: NCGC Sytravon Library Screen; settings: yeast TDP-43 toxicity rescue, BacTiter-Glo growth, 24 h; series mostly up to 46.1 µM; growth rescue (activation): at the top concentration; also: 0% is about no effect; nearly all actives have a fitted effect of over 55% in size
How it was run: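 TDP-43-expressing yeast, pregrown in raffinose, seeded at OD600 0.02 in galactose medium with compound for 24 hr at 30 deg C. Growth read by BacTiter-Glo luminescence, so rescue of toxicity appears as activation.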

Q: With `O=C(NCc1ccco1)/C(=C/c1ccc(F)cc1)NC(=O)c1ccccc1` as the compound, how does the “growth rescue (activation)” value read?
A: inactive: 5.1%

Q: With `CC(C)c1nc2sc3c(=O)[nH]cnc3c2c2c1CCCC2` as the compound, how does the “growth rescue (activation)” value read?
A: inactive: 12.1%

Q: For `O=C(CCN1CCN(C(=O)c2ccccc2)CC1)c1ccc(Br)cc1`, which “growth rescue (activation)” value is on record?
A: inactive: -16.4%

Q: With `CN1CCN(CCCCOc2ccccc2-c2ccccc2)CC1` as the compound, how does the “growth rescue (activation)” value read?
A: inactive: 8.36%

Q: Which “growth rescue (activation)” value does the source give for `CN(C)CCCOC(=O)Cc1ccc(Cl)cc1` here?
A: inactive: 11.7%

Q: Which “growth rescue (activation)” value does the source give for `CCN1CCN(S(=O)(=O)c2ccc(Cl)c(C(=O)NCc3nc4ccccc4[nH]3)c2)CC1` here?
A: inactive: 7.93%

Q: With `Cc1ccnc2nc(C(=O)OCC(=O)N(CC(C)C)CC(C)C)nn12` as the compound, how does the “growth rescue (activation)” value read?
A: inactive: 7.5%

Q: Which “growth rescue (activation)” value does the source give for `COc1cccc(/C=C2\CCCCC2=O)c1` here?
A: inactive: 15.4%

Q: With `COc1cc(C2C(C(=O)c3ccc(C)o3)=C(O)C(=O)N2CCc2ccccc2)ccc1O` (centres undefined) as the compound, how does the “growth rescue (activation)” value read?
A: inactive: 24%

Q: For `O=C1CCCN1CCCNC(=S)Nc1ccc(F)c(Cl)c1`, which “growth rescue (activation)” value is on record?
A: inactive: 12.3%

Q: For `Cc1cccc(NC(=O)Cn2nc(-c3ccco3)ccc2=O)c1C`, which “growth rescue (activation)” value is on record?
A: inactive: -1.7%

Q: Which “growth rescue (activation)” value does the source give for `COCCNC(=O)/C(C#N)=C/c1c(N2CCN(c3ccc(OC)cc3)CC2)nc2c(C)cccn2c1=O` here?
A: inactive: 3.82%

Q: For `O=C(Cc1cc(=O)[nH][nH]1)N/N=C/c1ccccc1Cl`, which “growth rescue (activation)” value is on record?
A: inactive: 15.4%

Q: Which “growth rescue (activation)” value does the source give for `Cn1c(=O)n(C)c2cc(/C=N/N=C3/NC(=O)C(CC(=O)O)S3)ccc21` (centres undefined) here?
A: inactive: 0.409%

Q: With `O=C(NCC1CCCO1)c1cccc(Oc2c(Cl)cccc2[N+](=O)[O-])c1` (centres undefined) as the compound, how does the “growth rescue (activation)” value read?
A: inactive: 16.7%

Q: Which “growth rescue (activation)” value does the source give for `Cc1cccc(CSCCNC(=O)Nc2ccccc2)c1` here?
A: inactive: 20.2%

Q: For `CCOc1ccccc1NC(=O)COC(=O)c1cc(C)oc1C`, which “growth rescue (activation)” value is on record?
A: inactive: 9.15%

Q: Which “growth rescue (activation)” value does the source give for `CCOC(=O)Cc1ccc(Nc2nc(NC)nc3ccsc23)cc1` here?
A: inactive: 17.2%

Q: For `CCc1ccccc1NC(=O)CCc1c(C)nc(SC)nc1C`, which “growth rescue (activation)” value is on record?
A: inactive: -6.56%

Q: Which “growth rescue (activation)” value does the source give for `O=C(CCc1ccccc1)NNC(=O)COc1ccccc1Cl` here?
A: inactive: 6.81%

Q: For `CCN(CC)S(=O)(=O)c1ccc(Cl)c(NC(=O)COC(=O)c2c(C)noc2C)c1`, which “growth rescue (activation)” value is on record?
A: inactive: 4.07%

Q: For `Brc1c(C[n+]2ccccc2)nc2ccccn12`, which “growth rescue (activation)” value is on record?
A: inactive: 5.1%

Q: Which “growth rescue (activation)” value does the source give for `CCCCc1ccc(NC(=S)NCc2ccccc2OC)cc1` here?
A: inactive: 3.81%

Q: With `O=C(c1ccccc1)c1sc(N2CCOCC2)nc1-c1ccccc1` as the compound, how does the “growth rescue (activation)” value read?
A: inactive: 17.4%

Q: With `CCC(=O)Nc1ccc(C(=O)NNC(=O)c2ccc([N+](=O)[O-])cc2)cc1` as the compound, how does the “growth rescue (activation)” value read?
A: inactive: 7.83%

Q: Which “growth rescue (activation)” value does the source give for `COCCNC(=O)CSc1nc2cc(OC)c(OC)cc2c(=O)n1CCc1ccc(S(N)(=O)=O)cc1` here?
A: inactive: 3.52%

Q: For `CCOc1cc(C(=O)N(C)c2ccccc2)cc(OCC)c1OCC`, which “growth rescue (activation)” value is on record?
A: inactive: 0.41%

Q: With `N#Cc1c(-c2ccc(Cl)cc2)cc(-c2cccs2)nc1SCC(=O)O` as the compound, how does the “growth rescue (activation)” value read?
A: inactive: 12.7%

Q: Which “growth rescue (activation)” value does the source give for `CSc1nnc(CNS(=O)(=O)c2ccc(Cl)cc2)n1C` here?
A: inactive: 3.31%

Q: For `CC(=O)Oc1cc(C(=O)OCC(=O)N2CCc3ccccc3C2)cc(OC(C)=O)c1OC(C)=O`, which “growth rescue (activation)” value is on record?
A: inactive: -33.2%

Q: With `Cc1ccc(C)c(NC(=O)Cn2cc(C(=O)C3CC3)c3ccccc32)c1` as the compound, how does the “growth rescue (activation)” value read?
A: inactive: 3.79%

Q: Which “growth rescue (activation)” value does the source give for `COc1ccccc1OCc1nnc(SCC(=O)N2CCCC2)o1` here?
A: inactive: -7.1%

Q: For `CCCCC(=O)N(C)c1c(CC)nc2c(OCc3cccc(Cl)c3)cccn12`, which “growth rescue (activation)” value is on record?
A: inactive: 4.14%

Q: Which “growth rescue (activation)” value does the source give for `COc1cc(C(C)=O)ccc1OCC(=O)NCC(c1ccc(F)cc1)N1CCOCC1` (centres undefined) here?
A: inactive: 12.8%

Q: For `Cc1cc(=O)oc2cc(NC(=O)CCOc3ccccc3)ccc12`, which “growth rescue (activation)” value is on record?
A: inactive: 7.04%

Q: With `CCN(CCNC(=O)C1=C(C)C(=O)OC12CCC(C)CC2)c1ccccc1` (centres undefined) as the compound, how does the “growth rescue (activation)” value read?
A: inactive: 13.5%

Q: For `Cc1c(CN2CCC(n3nccc3NC(=O)C3CCOC3)CC2)[nH]c2ccccc12` (centres undefined), which “growth rescue (activation)” value is on record?
A: inactive: 8.06%

Q: Which “growth rescue (activation)” value does the source give for `CN1CCN(C(=O)/C=C/c2cn(-c3ccccc3)nc2-c2ccc3c(c2)OCCO3)CC1` here?
A: inactive: -2.52%

Q: For `COc1cccc(NC(=S)/C(=C(\[O-])c2ccc(OC(F)F)cc2)[n+]2ccccc2)c1`, which “growth rescue (activation)” value is on record?
A: inactive: -2.17%

Q: With `CCCCOc1ccc(C(=O)NCC(=O)OCC(=O)c2c(N)n(C)c(=O)n(C)c2=O)cc1` as the compound, how does the “growth rescue (activation)” value read?
A: inactive: 2.91%

Q: Which “growth rescue (activation)” value does the source give for `COc1ccc(CCNC(=O)COC(=O)c2ccc(N3CCCC3=O)cc2)cc1` here?
A: inactive: 7.39%

Q: Which “growth rescue (activation)” value does the source give for `S=C(NCCN1CCOCC1)NC1CCCCC1` here?
A: inactive: -3.17%

Q: For `O=C(CC(NCc1ccccn1)C(=O)O)Nc1ccccc1Cl` (centres undefined), which “growth rescue (activation)” value is on record?
A: inactive: 4%

Q: For `O=C(COC(=O)c1ccc2c(c1)OCCO2)Nc1ccc(F)cc1`, which “growth rescue (activation)” value is on record?
A: inactive: 14.3%

Q: Which “growth rescue (activation)” value does the source give for `Cc1ccc(Oc2nnc(-c3cccs3)c3ccccc23)cc1C` here?
A: inactive: -9.32%

Q: With `COCCn1c(-c2ccc(SC)cc2)nc2c1c(=O)[nH]c(=O)n2CC(C)C` as the compound, how does the “growth rescue (activation)” value read?
A: inactive: 9.82%

Q: With `Cc1ccc(C(=O)O/N=C(\N)c2ccccn2)cc1` as the compound, how does the “growth rescue (activation)” value read?
A: inactive: 19.1%

Q: For `CC(C)c1ccc(S(=O)(=O)/N=C2\C=C(NS(=O)(=O)c3ccccc3)C(=O)c3ccccc32)cc1`, which “growth rescue (activation)” value is on record?
A: inactive: 27.4%

Q: With `Cc1ccc(S(=O)(=O)CC(=O)Nc2nc3ccccc3s2)cc1` as the compound, how does the “growth rescue (activation)” value read?
A: inactive: 13%

Q: Which “growth rescue (activation)” value does the source give for `CCc1ccc(N(CC(=O)NCC2CCCO2)C(=O)CCC(=O)Nc2nccs2)cc1` (centres undefined) here?
A: inactive: 15.9%

Q: For `CNC(=O)C1CC(=O)N(c2ccc(OCC(=O)Nc3ccccc3)cc2)C1` (centres undefined), which “growth rescue (activation)” value is on record?
A: inactive: 10.3%

Q: Which “growth rescue (activation)” value does the source give for `COc1ccc(S(N)(=O)=O)cc1C(=O)OCC(=O)Nc1ncc(Cl)c(C)c1Cl` here?
A: inactive: 6.79%

Q: Which “growth rescue (activation)” value does the source give for `CCOC(=O)C1CCCN(C(=O)c2cc(C)n(C(C)(C)C)n2)CC1` (centres undefined) here?
A: inactive: 10.4%

Q: For `Cc1cc(-c2c(C)[nH]n(-c3ccccc3)c2=O)n[nH]1`, which “growth rescue (activation)” value is on record?
A: inactive: 18.6%

Q: Which “growth rescue (activation)” value does the source give for `Clc1ccc(-c2cnc3ccccc3n2)cc1` here?
A: inactive: 20.9%

Q: For `O=C1Nc2ccccc2N(O)N1c1ccc(S(=O)(=O)N2CCCCCC2)cc1`, which “growth rescue (activation)” value is on record?
A: inactive: 22.5%

Q: With `O=C(NNC(=O)NC1CCCCC1)NC1CCCCC1` as the compound, how does the “growth rescue (activation)” value read?
A: inactive: 11.9%

Q: For `CC1CCCC(C)N1/N=C/c1ccc(C(=O)O)cc1` (centres undefined), which “growth rescue (activation)” value is on record?
A: inactive: -10.5%

Q: For `O=C(Nc1ccc(Oc2c(F)c(F)c(F)c(F)c2F)cc1)OC1CCN2Cc3ccccc3N=C12` (centres undefined), which “growth rescue (activation)” value is on record?
A: inactive: 11.3%

Q: For `COc1ccc(-c2cnc3c(NC(C)=O)cc(-c4ccc(S(C)(=O)=O)cc4)cn23)cc1OC`, which “growth rescue (activation)” value is on record?
A: inactive: 1.38%

Q: Which “growth rescue (activation)” value does the source give for `CC1(C(=O)Nc2ccc(Cl)c(Cl)c2)CCN1C(=O)Cc1ccc(-c2ccccc2)cc1` (centres undefined) here?
A: inactive: 13.4%

Q: Which “growth rescue (activation)” value does the source give for `COc1cc2c(cc1OC)/C(=C/C(=O)c1ccc(C)cc1)NCC2` here?
A: inactive: 15.3%

Q: For `CCON1C(=O)C(C)(C)N(OCC)C(=O)C1(C)C`, which “growth rescue (activation)” value is on record?
A: inactive: 1.85%

Q: For `COc1cc(C2CC(c3ccccc3)=NN2c2ccccc2)ccc1OCC(=O)O` (centres undefined), which “growth rescue (activation)” value is on record?
A: inactive: 5.47%

Q: For `O=C(COC(=O)CCc1nc2ccccc2c(=O)[nH]1)Nc1ccccc1`, which “growth rescue (activation)” value is on record?
A: inactive: 9.32%

Q: With `COc1ccc(OC)c(NC(=O)CSc2nc3scc(C)c3c(=O)[nH]2)c1` as the compound, how does the “growth rescue (activation)” value read?
A: inactive: 8.81%

Q: For `Cn1c(CC(=O)Nc2ccccc2F)nnc1SCC(=O)Nc1nccs1`, which “growth rescue (activation)” value is on record?
A: inactive: 3.74%

Q: For `C=CCN(CC=C)C(=O)Cn1cnc([N+](=O)[O-])n1`, which “growth rescue (activation)” value is on record?
A: inactive: 12.4%

Q: For `O=C(Nc1nnc(SCc2ccc(Cl)cc2)s1)c1cnccn1`, which “growth rescue (activation)” value is on record?
A: inactive: -5.89%
